According to the BET-seq Pho4 binding data (Le et al. 2018):
The other results are listed elsewhere or left out. Values were computed here from the reads of four pooled replicates and scatter widely.

target: T1, Pho4 (S. cerevisiae) (UniProt P07270); test: relative binding free energy (BET-seq); higher = weaker binding; details: reference: library average
T1 sequence: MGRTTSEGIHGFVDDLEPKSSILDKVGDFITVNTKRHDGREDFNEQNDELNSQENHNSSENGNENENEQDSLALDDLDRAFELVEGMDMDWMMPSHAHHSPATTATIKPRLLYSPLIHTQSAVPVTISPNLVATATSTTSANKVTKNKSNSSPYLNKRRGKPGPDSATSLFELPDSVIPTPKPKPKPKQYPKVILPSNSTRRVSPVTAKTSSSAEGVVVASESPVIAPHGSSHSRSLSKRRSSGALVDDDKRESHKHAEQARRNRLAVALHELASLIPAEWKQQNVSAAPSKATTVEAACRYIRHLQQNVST

Sequence	relative binding free energy
AGGGCCACGTGGAGTG	-0.25 kcal/mol
GGAGACACGTGTTTGA	0.07 kcal/mol
TAATACACGTGTGGAG	0.1 kcal/mol
GTGAGCACGTGGTAGT	-0.11 kcal/mol
TGTACCACGTGTGTTT	-0.03 kcal/mol
ACAGGCACGTGTGAGT	0.06 kcal/mol
TGGGCCACGTGCGTGA	-0.17 kcal/mol
TGTGGCACGTGGCTCG	-0.04 kcal/mol
GTTGGCACGTGTCGAT	0.08 kcal/mol
GGTCGCACGTGATGGA	0.1 kcal/mol
GTATGCACGTGATCGT	-0.12 kcal/mol
GCCTGCACGTGTCGGG	0.19 kcal/mol
GTAGTCACGTGTGATG	0.12 kcal/mol
GGCTTCACGTGTTTCG	0.21 kcal/mol
TGATGCACGTGAGTAA	0.04 kcal/mol
CGAGTCACGTGGGATA	0.07 kcal/mol
CTGGTCACGTGGAGGA	0.24 kcal/mol
ATCTACACGTGTGTTT	0.18 kcal/mol
CCGGTCACGTGTGGGT	0.24 kcal/mol
CGGTTCACGTGGTGCG	0.1 kcal/mol
TTTTTCACGTGGTTTG	0.29 kcal/mol
TCTGGCACGTGTAATT	0.01 kcal/mol
TTGGTCACGTGCGGAG	0.15 kcal/mol

Sequence	relative binding free energy
AGAGGCACGTGGGGCA	-0.2 kcal/mol
AATTTCACGTGCTGGG	0.22 kcal/mol
GAACGCACGTGGAGGT	0 kcal/mol
ATGTTCACGTGGATCG	0.26 kcal/mol
TGGGGCACGTGGGCAG	-0.19 kcal/mol
AGTGTCACGTGTACAG	-0.04 kcal/mol
CATTACACGTGGTGTA	-0.03 kcal/mol
GATATCACGTGGCAGT	0.22 kcal/mol
AGATTCACGTGGAATT	0.24 kcal/mol
GGGAGCACGTGGAGTT	0.01 kcal/mol
GATCTCACGTGTGTGT	0.13 kcal/mol
TCCTTCACGTGGGGGT	0.08 kcal/mol
GGTAGCACGTGTTACT	0.05 kcal/mol
GATTGCACGTGGGTAT	0.02 kcal/mol
TAGCGCACGTGGTGTA	-0.24 kcal/mol
GTGGACACGTGGCCGT	-0.02 kcal/mol
GTGACCACGTGTGTGG	-0.16 kcal/mol
AGGGCCACGTGGCATG	-0.15 kcal/mol
TTAGGCACGTGAGCGG	0.15 kcal/mol
AAGTTCACGTGTGAGG	0.34 kcal/mol
GTAGGCACGTGTTAAA	0.04 kcal/mol
ATGAGCACGTGTGGGA	-0.04 kcal/mol
CAGGGCACGTGTGTAT	-0.15 kcal/mol

Sequence	relative binding free energy
TCACGCACGTGGGGTA	-0.23 kcal/mol
ATGGGCACGTGATATA	-0.02 kcal/mol
AAGGACACGTGGTAGG	-0.08 kcal/mol
TATAGCACGTGGAAGG	-0.06 kcal/mol
TATGACACGTGAGCGT	0.2 kcal/mol
TTTCGCACGTGGGGTA	-0.21 kcal/mol
CTTAGCACGTGGGTAG	-0.31 kcal/mol
AATTACACGTGGTTAT	0.09 kcal/mol
TGGTGCACGTGTGTGT	0.04 kcal/mol
ATCTTCACGTGGGTAG	0.22 kcal/mol
TGATTCACGTGGATTA	0.35 kcal/mol
GGGAGCACGTGCGGGT	-0.03 kcal/mol
GGGCTCACGTGTTCTG	0.32 kcal/mol
GTAATCACGTGTTGGT	0.31 kcal/mol
GTAGACACGTGAGGAG	0.43 kcal/mol
ATTCTCACGTGTTGGA	0.31 kcal/mol
TGACGCACGTGTGTTT	0.02 kcal/mol
GTTTCCACGTGGGCGT	-0.1 kcal/mol
AGAAACACGTGAGGGC	0.31 kcal/mol
TAGGGCACGTGTGTAC	-0.33 kcal/mol
AATGCCACGTGTTTTT	0.05 kcal/mol
ATAGACACGTGTTGCT	-0.02 kcal/mol
TGAAGCACGTGTCTGT	0 kcal/mol

Sequence	relative binding free energy
CGGGTCACGTGGGGAT	0.04 kcal/mol
TCTTTCACGTGTTATG	0.25 kcal/mol
TGAGTCACGTGGTGCT	0.15 kcal/mol
TGGGACACGTGTGTTA	0.14 kcal/mol
TCGGTCACGTGATTCG	0.39 kcal/mol
GGGTGCACGTGTTGGA	0.02 kcal/mol
AAGGGCACGTGTGTGA	-0.07 kcal/mol
TTGTCCACGTGTTGGG	0.13 kcal/mol
TGGTTCACGTGGCAAT	0.18 kcal/mol
TGAAGCACGTGCCGGG	-0.16 kcal/mol
TTTGTCACGTGCGCAG	-0.08 kcal/mol
AAGGTCACGTGGAGTC	0.2 kcal/mol
TCGGGCACGTGACGGT	-0.1 kcal/mol
CTAGGCACGTGGGTTA	-0.39 kcal/mol
TGGGTCACGTGCATAG	-0.01 kcal/mol
AGCGGCACGTGAGGGA	0.19 kcal/mol
TGCATCACGTGAGGAT	0.38 kcal/mol
TCAGGCACGTGTTATA	-0.05 kcal/mol
ACGGGCACGTGTAAGG	0.1 kcal/mol
CAATGCACGTGGGGGT	-0.16 kcal/mol
GTTATCACGTGACTGT	0.33 kcal/mol
AGATCCACGTGTGGTG	-0.11 kcal/mol
AGTACCACGTGGGTGT	-0.22 kcal/mol

Sequence	relative binding free energy
TGAGACACGTGGTAAG	-0.03 kcal/mol
CGGGGCACGTGAGTAG	0.17 kcal/mol
AAGGGCACGTGTATTG	-0.21 kcal/mol
GGGGGCACGTGGAACA	-0.07 kcal/mol
TGGATCACGTGATTTA	0.25 kcal/mol
TTGAACACGTGGTTTG	-0.02 kcal/mol
TTACGCACGTGGTTAT	-0.28 kcal/mol
TGTTCCACGTGAAAGG	0.31 kcal/mol
GGTCTCACGTGGGCTA	0.15 kcal/mol
ATTCTCACGTGTGGCT	0.33 kcal/mol
ATGTTCACGTGATTCT	0.27 kcal/mol
CCATTCACGTGGGGTT	0.15 kcal/mol
AAGGGCACGTGCGTGA	-0.1 kcal/mol
TAGTCCACGTGGTTTG	0.02 kcal/mol
CTTTGCACGTGATTAT	-0.06 kcal/mol
TTTTACACGTGTATAA	0.15 kcal/mol
GGGGTCACGTGGGGAT	0.02 kcal/mol
GTGTCCACGTGTGTGA	0.07 kcal/mol
GGGTTCACGTGAAGGA	0.55 kcal/mol
ATTTGCACGTGGGCAT	-0.14 kcal/mol
TGATTCACGTGCATTT	0.14 kcal/mol
TAATTCACGTGGATTG	0.13 kcal/mol
GGGGACACGTGGCGGA	-0.01 kcal/mol
